Measurements: PubChem BioAssay AID485344 (National Center for Advancing Translational Sciences (NCATS), 2010)
Out of some 340,000 compounds screened, about 6,900 (2%) were called active. No stated cut-off is given here; in the data, active means inhibition above about 30%; inactive means below that, where a call was filed. The list shows a part of the results, in another mix than the full data. Entries without a call were filed so in the source.

Target: D(2) dopamine receptor (Homo sapiens) (UniProt P14416)
UniProt P14416, sequence (P14416 whole entry, looked up): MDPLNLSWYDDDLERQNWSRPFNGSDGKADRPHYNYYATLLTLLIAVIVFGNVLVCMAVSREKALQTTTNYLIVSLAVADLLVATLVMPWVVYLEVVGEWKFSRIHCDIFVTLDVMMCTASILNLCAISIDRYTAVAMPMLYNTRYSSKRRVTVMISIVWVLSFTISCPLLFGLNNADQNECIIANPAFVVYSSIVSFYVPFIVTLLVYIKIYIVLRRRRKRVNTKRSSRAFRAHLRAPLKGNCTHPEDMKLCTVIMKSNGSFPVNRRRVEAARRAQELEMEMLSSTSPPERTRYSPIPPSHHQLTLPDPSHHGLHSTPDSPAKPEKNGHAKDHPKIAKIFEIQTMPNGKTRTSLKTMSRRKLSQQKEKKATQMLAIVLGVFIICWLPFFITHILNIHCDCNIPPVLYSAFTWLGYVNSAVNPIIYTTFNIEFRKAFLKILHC
Experiment: HTS Assay for Allosteric Antagonists of the Human D2 Dopamine Receptor: Primary Screen for Antagonists; further: 0% is about no effect
Conditions: HEK293 TREx D2 cells, calcium flux, dopamine EC80; at 10 µM; stronger effect = higher value
How it was run: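 Calcium flux kinetic readout in an inducible HEK293 TREx D2 line plated overnight at 30 C. After 180 s compound exposure, an EC80 dopamine challenge follows with another 180 s kinetic read to detect antagonism.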

| Structure (SMILES) | inhibition |
| --- | --- |
| Cc1cccc(NC(=O)c2sc3nc(-c4ccccc4)cn3c2C)c1C | -13.1% |
| CCc1ccc(NC(=O)C2CCC(CNS(=O)(=O)c3ccc4c(c3)C(C)(C)C(=O)N4C)CC2)cc1 (configuration not stated) | 2.61% |
| COc1ccc2c(CNCc3ccccc3OC)c(C(=O)O)n(Cc3ccc(F)cc3Cl)c2c1 | -2.3% |
| COc1ccc(C)cc1NC(=O)c1cc(S(=O)(=O)N2CCC(C)CC2)cn1C | 2.37% |
| Cc1cccc(N2CCN(C(=O)c3c(C)oc4ncnc(N5CCOCC5)c34)CC2)c1C | 2.07% |
| Nc1cc(=O)nc(SCC(=O)Nc2ccc(F)cc2)n1-c1cccc(Cl)c1 | 21.8% |
| Cc1nn(C(=O)COc2ccccc2Br)c(C)c1Sc1ccccc1 | -12.6% |
| COc1ccc(CCN2C(=O)N(c3ccc(C)cc3)C(=O)C2CC(=O)Nc2ccc(F)cc2)cc1 (configuration not stated) | -28.2% |
| CCc1ccc(NC(=O)C(NS(=O)(=O)c2cccc3nsnc23)c2ccccc2)cc1 (configuration not stated) | 4.29% |
| COc1ccc(CN2C(=O)N(c3ccc(F)cc3)C(=O)C2CC(=O)Nc2cc(OC)cc(OC)c2)cc1 (configuration not stated) | 9.15% |
| CC(=O)c1c(C)oc2ccc(N(C(=O)Oc3ccccc3)S(=O)(=O)c3ccccc3)cc12 | 2.91% |
| Cc1ccc(S(=O)(=O)c2c(Nc3cc(C)ccc3C)sc(C(=O)c3ccc4c(c3)OCO4)c2N)cc1 | 24.3% |
| CC(CNC(=O)c1cc(-c2ccccc2)n[nH]1)c1ccccc1 (configuration not stated) | -5.86% |
| CC1CCCN(c2c(S(=O)(=O)c3ccccc3)cnc3ccc(Cl)cc23)C1 (configuration not stated) | 17.4% |
| Cc1ccc(Cl)cc1NC(=O)N1CCC2(CC1)Oc1ccccc1C(=O)N2Cc1ccccc1F | 6.32% |
| CCS(=O)(=O)N1CC(=O)N(c2cc(C)ccc2C)C(C)(C(=O)NC2CCCCC2)C1 (configuration not stated) | -13.7% |
| COc1ccc(-n2nnc(-c3nsc(NC(=O)c4cccs4)n3)c2C)cc1OC | 14.2% |
| Cc1c(Cl)cccc1NC(=O)C(CCS(C)(=O)=O)N1Cc2ccccc2C1=O (configuration not stated) | -5.27% |
| Cc1cccc(NC(=O)C(=O)NCCc2sc(-c3ccccc3)nc2C)c1C | -6.11% |
| COc1ccc(-c2cn3c(n2)sc2cc(C(=O)NC4CCCCCC4)ccc23)cc1 | -7.48% |
| CC1C(=O)Nc2ccc(S(=O)(=O)NCc3ccc(N(C)C)cc3)cc2NC1=O (configuration not stated) | 25.1% |
| COc1ccc(OCCn2c(C(C)Oc3ccccc3)nc3ccccc32)cc1 (configuration not stated) | -6.96% |
| CCN(CC)S(=O)(=O)c1ccc2c(c1)nc(CN(C)C(=O)Nc1cccc(Cl)c1)n2C | 5.2% |
| COc1cccc(C(=O)c2cn(CC(=O)Nc3cccc(C(F)(F)F)c3)c3nc(C)ccc3c2=O)c1 | -5.45% |

| Structure (SMILES) | inhibition |
| --- | --- |
| CC(=O)N1CCc2cc(S(=O)(=O)NC(CC(C)C)C(=O)NCCc3ccc(C)cc3)ccc21 (configuration not stated) | -10.1% |
| CCCN(CCC)C(=O)CN1C(=O)CSc2ccc(S(=O)(=O)N3CCC(C)CC3)cc21 | 1.65% |
| COc1ccc(Cn2c(CCC(=O)Nc3ccc(C)c(C)c3)nc3cccnc32)cc1 | 11.9% |
| CCOc1ccc2nc(N3CCCC(C(=O)NCCCOC)C3)sc2c1 (configuration not stated) | -3.6% |
| Cc1nc2nc(NCc3cccc(Cl)c3)[nH]n2c(=O)c1Cc1ccccc1 | -0.325% |
| COc1ccc(-c2cc3ccc(O)c(CN4CCCC(C)C4)c3oc2=O)cc1 (configuration not stated) | -0.0166% |
| CCOc1ccc(CCNC(=O)Cn2c(=O)c3cccn3c3ccc(F)cc32)cc1OCC | 10% |
| COC(=O)c1ccc(Cn2c(SCc3ccccc3F)nc3ccncc32)cc1 | -7.92% |
| Cc1ccc(NCC(=O)N/N=C/c2ccncc2)cc1 | active: 49.3% |
| CCN1CCc2nc3sc(C(=O)c4ccccc4)c(N)c3cc2C1 | -11.2% |
| CC(CNC(=O)c1ccc(CSc2nc3ccncc3n2Cc2ccc(F)cc2)cc1)c1ccccc1 (configuration not stated) | 5.34% |
| COc1ccccc1NC(=S)NC(=O)Cc1ccc(Cl)cc1 | active: 52.3% |
| CN(C)Cc1nc2c(c(=O)[nH]1)C1(CCCCC1)Cc1ccccc1-2 | active: 36.9% |
| Cc1ccc(CNC(=O)C2CCCCN2S(=O)(=O)c2ccc(F)cc2)cc1 (configuration not stated) | 6.02% |
| COc1ccc(CNC(=O)C2CCN(S(=O)(=O)c3ccc(F)cc3)CC2)cc1 | -8.74% |
| Cc1ccc(NC(=O)CSc2nc(-c3ccc(C(C)(C)C)cc3)nc3cc(=O)[nH]n23)cc1C | -3.51% |
| O=C(Cc1ccccc1)N[C@@H](Cc1ccc(O)cc1)C(=O)O | active: 36% |
| COCCNC(=O)CSc1nc2cc3c(cc2c(=O)n1CCCC(=O)NCc1ccc(OC)cc1)OCO3 | 7.99% |
| COC(=O)c1cc(S(=O)(=O)NCC2CCN(Cc3ccc(F)cc3)CC2)c[nH]1 | -2.19% |
| COCCNC(=O)c1ccc2c(c1)N(Cc1cc(C)ccc1C)C(=O)c1ccccc1S2(=O)=O | 11.3% |
| COc1ccc(S(=O)(=O)N2CCN(c3ccc(Cl)c(Cl)c3)CC2)c2ccccc12 | -5.79% |
| Cc1cc(NCc2ccccc2Cl)n2cnnc2n1 | 8.89% |
| Cc1ccc(NC(=O)CSc2nc3ccccc3nc2Cc2ccccc2)c(C)c1 | -17.6% |
